Assay results reported in PMC6212790.
This is one part of the list. At the low end of the ranking the order means little.
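Note: rank score from −0.5 (least bound) to 0.5 (best bound).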

The sequences below were run against T1, GST-Rok (full length) (UniProt O34857) (assay: protein binding microarray). Conditions: Rok is a gene silencer of Bacillus subtilis; high values mean tight binding; most listed sequences are background and not binding sites; double strand, one strand shown.
T1 sequence: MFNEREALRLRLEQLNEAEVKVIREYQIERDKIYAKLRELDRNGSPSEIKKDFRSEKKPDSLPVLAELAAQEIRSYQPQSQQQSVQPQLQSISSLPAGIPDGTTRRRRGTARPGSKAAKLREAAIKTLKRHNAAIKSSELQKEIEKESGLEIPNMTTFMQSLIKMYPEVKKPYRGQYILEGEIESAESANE
CGCTTCCG gave a binding signal of -0.196 E-score.
In the case of CTTTGCCA, the binding signal is reported as -0.232 E-score.
AGGCGGAG gave a binding signal of -0.286 E-score.
CTGACTAC showed a binding signal of 0.1 E-score.
TGATGTAA gave a binding signal of 0.134 E-score.
In the case of TAGGACTA, the binding signal is reported as 0.0703 E-score.
With AGGAACGG the binding signal was -0.278 E-score.
CATTTCCA showed a binding signal of 0.0507 E-score.
In the case of CCTCTCAC, the binding signal is reported as -0.164 E-score.
In the case of GAAGGAGC, the binding signal is reported as -0.24 E-score.
For CGATAACC, the binding signal was -0.0695 E-score.
CGTTTGCA gave a binding signal of -0.174 E-score.
In the case of ATCCAACG, the binding signal is reported as -0.0422 E-score.
In the case of CGCTAACG, the binding signal is reported as 0.0283 E-score.
TCACAAGA was tested, and the binding signal was -0.166 E-score.
AAGATCGA gave a binding signal of 0.119 E-score.
In the case of CAAGAGGC, the binding signal is reported as -0.306 E-score.
With GTACTGCA the binding signal was 0.198 E-score.
ATGTGGCG showed a binding signal of -0.0322 E-score.
TACATCCA gave a binding signal of 0.248 E-score.
In the case of GAACGAAA, the binding signal is reported as -0.0952 E-score.
With AGGGTGGA the binding signal was -0.354 E-score.
CGAATGAG was tested, and the binding signal was 0.0153 E-score.
With ACTCACAC the binding signal was 0.0343 E-score.
ACTGTACT was tested, and the binding signal was 0.209 E-score.
GCTCCTCA gave a binding signal of -0.235 E-score.
CCATGTTA was tested, and the binding signal was 0.123 E-score.
GAGTTCTA showed a binding signal of 0.169 E-score.
GCTACGCA was tested, and the binding signal was -0.225 E-score.
In the case of AGTCTGTA, the binding signal is reported as 0.118 E-score.
Sequence GAGGGCCC has a binding signal of -0.441 E-score.
Sequence CGCTATGC has a binding signal of -0.151 E-score.
GCCAGTCA was tested, and the binding signal was -0.0452 E-score.
With CACCTGTC the binding signal was -0.192 E-score.
Sequence GATGAACC has a binding signal of -0.136 E-score.
ACATCCCA gave a binding signal of -0.0483 E-score.
With CCATTACA the binding signal was 0.0924 E-score.
In the case of ACGATACA, the binding signal is reported as 0.175 E-score.
For CTGAGAAC, the binding signal was -0.0521 E-score.
ATGCTAAT gave a binding signal of 0.184 E-score.
With ATGTGTTG the binding signal was 0.111 E-score.
CATCGTTA showed a binding signal of 0.161 E-score.
For AGGCTCTG, the binding signal was -0.157 E-score.
CGCCGTAA showed a binding signal of -0.148 E-score.
In the case of CGCAGCAG, the binding signal is reported as -0.129 E-score.
For ACTCAGTG, the binding signal was -0.0539 E-score.
For ACACACAA, the binding signal was -0.072 E-score.
For GATCCCAC, the binding signal was -0.142 E-score.
In the case of CGGCTCAA, the binding signal is reported as -0.239 E-score.
Work on AACAGGAA yielded a binding signal of -0.0538 E-score.
Work on ACATCCAG yielded a binding signal of 0.088 E-score.
With ACGCTTTG the binding signal was -0.209 E-score.
In the case of ATTGCTCC, the binding signal is reported as 0.0337 E-score.
For CCAGTTCG, the binding signal was -0.204 E-score.
Sequence ATGATATC has a binding signal of 0.173 E-score.
AGCTAAGA showed a binding signal of 0.0579 E-score.
CAATACAA gave a binding signal of 0.114 E-score.
In the case of ATTCCTGC, the binding signal is reported as 0.154 E-score.
Sequence ACGAACGG has a binding signal of -0.178 E-score.
CGGCACAG was tested, and the binding signal was -0.105 E-score.
In the case of AATGAATT, the binding signal is reported as 0.29 E-score.
CTCTGAAA was tested, and the binding signal was 0.0893 E-score.
Sequence GACGGCAC has a binding signal of -0.177 E-score.
GGGGTCGA was tested, and the binding signal was -0.314 E-score.
Work on CATGGTAG yielded a binding signal of 0.168 E-score.
In the case of GCTAAGGA, the binding signal is reported as -0.181 E-score.
GATCGCTA was tested, and the binding signal was 0.00886 E-score.
With AGTCAGCG the binding signal was 0.00834 E-score.
In the case of CCTATCAC, the binding signal is reported as 0.0828 E-score.
With CTAAGAGA the binding signal was -0.0737 E-score.
With AATCTGAC the binding signal was -0.0954 E-score.
CGAACCCG showed a binding signal of -0.099 E-score.
In the case of AACGTGGC, the binding signal is reported as -0.156 E-score.
For CATGTACC, the binding signal was 0.219 E-score.
For AAGCCCGA, the binding signal was -0.21 E-score.
With GCAGAAGC the binding signal was -0.214 E-score.
GCCTAGGA gave a binding signal of -0.0449 E-score.
GCCGAGCA gave a binding signal of -0.318 E-score.
AATGAGCT was tested, and the binding signal was -0.107 E-score.
CCCATTCC showed a binding signal of -0.204 E-score.
With CAGAGCAG the binding signal was -0.273 E-score.
Sequence AACAGAAG has a binding signal of 0.0183 E-score.
CCCTGTTC was tested, and the binding signal was -0.371 E-score.
CAACACCG was tested, and the binding signal was -0.0948 E-score.
For AGTCTGCC, the binding signal was -0.265 E-score.
With CGTAGACC the binding signal was -0.2 E-score.
Work on TAAACGGA yielded a binding signal of 0.0186 E-score.
With AACACCAG the binding signal was -0.0704 E-score.
GCCGCACC gave a binding signal of -0.268 E-score.
TCTTGCAA was tested, and the binding signal was 0.108 E-score.
Sequence GTAGCGAC has a binding signal of 0.183 E-score.
Work on AGGGCGCC yielded a binding signal of -0.186 E-score.
For AAACGAAT, the binding signal was 0.212 E-score.
In the case of GCTCAAAA, the binding signal is reported as -0.148 E-score.
Work on CAAGGACA yielded a binding signal of -0.196 E-score.
In the case of CGAGCCGC, the binding signal is reported as -0.156 E-score.
AGACTGAT gave a binding signal of -0.0117 E-score.
With AGGGCGAG the binding signal was -0.187 E-score.
AACATAAA gave a binding signal of 0.0213 E-score.
With GCGCGTTA the binding signal was 0.0823 E-score.
CTGCCCGC showed a binding signal of -0.258 E-score.
CTGGAGTA was tested, and the binding signal was 0.0135 E-score.
With CCATCTCG the binding signal was -0.0837 E-score.
ATATTCTG showed a binding signal of 0.214 E-score.
TCCGAGAA showed a binding signal of -0.0164 E-score.
For AGACTTCG, the binding signal was -0.15 E-score.
For ACCTTCGA, the binding signal was 0.00802 E-score.
In the case of AACATGAT, the binding signal is reported as 0.181 E-score.
GCCCCACC was tested, and the binding signal was -0.364 E-score.
CAGGAGGA was tested, and the binding signal was -0.19 E-score.
GGTAACAA gave a binding signal of 0.126 E-score.
With ATCAGGGG the binding signal was -0.142 E-score.
With AATGTTCC the binding signal was -0.104 E-score.
With AGATATTA the binding signal was 0.404 E-score.
GTTGGACA was tested, and the binding signal was -0.242 E-score.
For GGCGTGCA, the binding signal was -0.208 E-score.
CGTCCGAC was tested, and the binding signal was -0.166 E-score.
Work on AGGCCATG yielded a binding signal of -0.266 E-score.
ATTTTCTG was tested, and the binding signal was -0.139 E-score.
With GTCATATA the binding signal was 0.291 E-score.
GACCCTAC showed a binding signal of -0.165 E-score.
For ATGAGTCC, the binding signal was -0.167 E-score.
CTACCAAG gave a binding signal of -0.0129 E-score.
AGGAGGTC was tested, and the binding signal was -0.306 E-score.
For ACCTGTTA, the binding signal was 0.0535 E-score.
For AACCACGA, the binding signal was 0.0386 E-score.
GATACTGC gave a binding signal of 0.0147 E-score.
In the case of AGCGCACA, the binding signal is reported as -0.0985 E-score.
CTTCGAGA showed a binding signal of -0.0995 E-score.
In the case of CATCGGAG, the binding signal is reported as -0.27 E-score.
Work on GCACAGCC yielded a binding signal of -0.267 E-score.
With GGGGCTTA the binding signal was -0.298 E-score.
CTTCATAC was tested, and the binding signal was 0.0169 E-score.
CTTTTCGA showed a binding signal of 0.119 E-score.
Work on ATTCGGGC yielded a binding signal of -0.08 E-score.
ATTCAGAC showed a binding signal of -0.145 E-score.
In the case of TCAATCCA, the binding signal is reported as -0.0971 E-score.
CTCAATTC was tested, and the binding signal was 0.0663 E-score.
With GACCCGAA the binding signal was -0.305 E-score.
For CGGCTACG, the binding signal was -0.221 E-score.
Work on CGACAACC yielded a binding signal of -0.0599 E-score.
For ACTATTCT, the binding signal was 0.125 E-score.
Sequence ATGAAACA has a binding signal of 0.15 E-score.
ATCTTCAA showed a binding signal of 0.086 E-score.
In the case of CTTTGTGA, the binding signal is reported as -0.139 E-score.
ACGCTGTA was tested, and the binding signal was -0.022 E-score.
In the case of AAGGCAGG, the binding signal is reported as -0.327 E-score.
ATTGTCCG gave a binding signal of -0.0725 E-score.
With AACCTATT the binding signal was 0.19 E-score.
Sequence AATCATTA has a binding signal of 0.158 E-score.
For AAGTTAAG, the binding signal was -0.0839 E-score.
GTCCTAAA gave a binding signal of -0.0236 E-score.
In the case of AAGGCAAG, the binding signal is reported as -0.321 E-score.
Work on CAGTTCTC yielded a binding signal of 0.00617 E-score.
ATATACTG gave a binding signal of 0.391 E-score.
With ACCGTCAA the binding signal was -0.131 E-score.
ATCCGTCG gave a binding signal of 0.0223 E-score.
TCGGTCCA gave a binding signal of -0.102 E-score.
Work on CAAACTCA yielded a binding signal of -0.00762 E-score.
CGGACAAA was tested, and the binding signal was -0.0713 E-score.
In the case of CCCATCCG, the binding signal is reported as -0.159 E-score.
TGCGGACA was tested, and the binding signal was -0.0891 E-score.
CCGATAAC gave a binding signal of 0.117 E-score.
In the case of GCGTGGAA, the binding signal is reported as -0.175 E-score.
Sequence CGAATGTC has a binding signal of -0.0683 E-score.
AAGCTGAA showed a binding signal of -0.00415 E-score.
CGATGTAC gave a binding signal of 0.172 E-score.
With CTAATAGA the binding signal was 0.0426 E-score.
ATGTAGTA was tested, and the binding signal was 0.403 E-score.
Sequence GAGCGCTC has a binding signal of -0.0989 E-score.
AGTAACCA gave a binding signal of 0.231 E-score.
With CTACGCAA the binding signal was -0.0862 E-score.
